Where a name gives a salt, the structure may show the parent alone. The list shows a part of the results. Repeats are few or missing, and single values can be far off.
Legend:
Experiment in all cases: cell viability relative to vehicle (% of vehicle); basal-like triple-negative breast cancer lines; higher = less cytotoxic
Settings in all cases: 10 µM; 72 h
HCC-1143 = test system: HCC-1143
HCC-1187 = test system: HCC-1187
MDA-468 = test system: MDA-468
SUM-149 = test system: SUM-149
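Also: stably firefly luciferase-GFP labeled cells in 96-well plates, viability read as luciferase photon flux after d-luciferin addition, treated wells normalized to vehicle wells, single-dose high-throughput screen.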

| SMILES | cell viability (HCC-1143) | cell viability (HCC-1187) | cell viability (MDA-468) | cell viability (SUM-149) |
| --- | --- | --- | --- | --- |
| Nc1nc2[nH][nH]nc-2c(=O)n1 [Azaguanine-8] | 121 | 108 | 143 |  |
| CCCSc1ccc2nc(NC(=O)OC)[nH]c2c1 [Albendazole] | 87.2 | 93.3 | 61.9 |  |
| CN(CCOc1ccc(CC2SC(=O)NC2=O)cc1)c1ccccn1 (stereo unspecified) [Rosiglitazone] | 133 | 99.6 | 140 |  |
| Cn1nnc(-c2ccc(-c3ccc(N4CC(CO)OC4=O)cc3F)cn2)n1 (stereo unspecified) [Tedizolid] | 196 | 185 |  |  |
| COc1ccc(-c2cc(=O)c3c(O)cc(O)cc3o2)cc1O [Diosmetin] | 113 | 120 |  |  |
| Nc1nc(Cl)nc2c1ncn2C1OC(CO)C(O)C1F (stereo unspecified) [Clofarabine] | 73.3 | 61.9 | 61 |  |
| O=c1c(-n2ccnn2)c[nH]n1-c1cc(N2CCOCC2)ncn1 [Molidustat (BAY85-3934)] | 137 | 106 | 170 |  |
| O=C(NC1CCN(CCCCC2(C(=O)NCC(F)(F)F)c3ccccc3-c3ccccc32)CC1)c1ccccc1-c1ccc(C(F)(F)F)cc1 [Lomitapide] | 30.4 | 26.2 | 28.2 | 26.2 |
| CCc1cnn2c(NCc3ccc[n+]([O-])c3)cc(N3CCCCC3CCO)nc12 (stereo unspecified) | 45.6 | 33.8 | 41.1 |  |
| COC(=O)Nc1nc2ccc(Sc3ccccc3)cc2[nH]1 [Fenbendazole] | 126 | 57.3 | 90.7 |  |
| CCCCc1nc2cc(C=CC(=O)NO)ccc2n1CCN(CC)CC [Pracinostat (SB939)] | 43 | 31.1 | 43.4 |  |
| O=c1[nH]c(=O)n(C2CC(O)C(CO)O2)cc1I (stereo unspecified) [Idoxuridine] | 89.6 | 121 | 156 |  |
| CCC(=O)OC1(C(=O)CCl)C(C)CC2C3CCC4=CC(=O)C=CC4(C)C3(F)C(O)CC21C (stereo unspecified) [Clobetasol propionate] | 78.7 | 90.9 | 158 |  |
| Nc1nc(NC2CC2)c2ncn(C3C=CC(CO)C3)c2n1 (stereo unspecified) [Abacavir] | 168 | 101 |  |  |
| [O-]n1ccccc1=S.[O-]n1ccccc1=S.[Zn+2] [Zinc Pyrithione] | 79.5 | 31.6 | 52.7 |  |
| O=c1[nH]c(=O)n(C2CC(O)C(CO)O2)cc1C(F)(F)F (stereo unspecified) [Triflurdine (Viroptic)] | 62.7 | 117 | 113 |  |
| COC(=O)NC(C(=O)N1CCCC1c1ncc(-c2ccc(-c3ccc(-c4cnc(C5CCCN5C(=O)C(NC(=O)OC)C(C)C)[nH]4)cc3)cc2)[nH]1)C(C)C (stereo unspecified) | 107 | 106 | 66.4 | 96.2 |
| CC1CCOC2Cn3cc(C(=O)NCc4ccc(F)cc4F)c(=O)c(O)c3C(=O)N12 (stereo unspecified) | 158 | 69 | 150 |  |
| CCC(=O)OC1(C(=O)SCF)C(C)CC2C3CC(F)C4=CC(=O)C=CC4(C)C3(F)C(O)CC21C (stereo unspecified) [Fluticasone propionate] | 87 | 104 | 167 |  |
| Cn1cnc([N+](=O)[O-])c1Sc1ncnc2nc[nH]c12 [Azathioprine] | 66.5 | 72.4 | 99.1 |  |
| O=c1[nH]cc(F)c(=O)[nH]1 [Fluorouracil (Adrucil)] | 74.4 | 61.5 | 78.6 | 80.1 |
| CC(=O)OCC(=O)[C@@]12OC(C)(C)O[C@@H]1C[C@H]1[C@@H]3C[C@H](F)C4=CC(=O)C=C[C@]4(C)[C@@]3(F)[C@@H](O)C[C@@]12C [Fluocinonide] | 96.2 | 82.9 | 173 |  |
| Cc1cc(C2CCCCC2)n(O)c(=O)c1.NCCO [Ciclopirox ethanolamine] | 59.2 | 65 | 33.3 |  |
| CCC(=O)OC1(C(=O)CCl)C(C)CC2C3CC(F)C4=CC(=O)C=CC4(C)C3(F)C(O)CC21C (stereo unspecified) [Halobetasol Propionate] | 121 | 116 | 108 |  |
| CC1CC2C(C(O)CC3(C)C2CCC3(O)C(=O)CO)C2(C)C=CC(=O)C=C12 (stereo unspecified) [Methylprednisolone] | 96.7 | 108 | 137 |  |
| CC(NCc1ccc(OCc2cccc(F)c2)cc1)C(N)=O.CS(=O)(=O)O (stereo unspecified) [Safinamide Mesylate] | 171 | 75 | 158 |  |
| Nc1nc(F)nc2c1ncn2C1OC(CO)C(O)C1O (stereo unspecified) [Fludarabine] | 72.4 | 75 | 91.5 |  |

| SMILES | cell viability (HCC-1143) | cell viability (HCC-1187) | cell viability (MDA-468) | cell viability (SUM-149) |
| --- | --- | --- | --- | --- |
| Cc1ccc(-n2[nH]c(C)c(NN=C3C=CC=C(c4cccc(C(=O)O)c4)C3=O)c2=O)cc1C.NCCO.NCCO [Eltrombopag Olamine] | 74.6 | 115 | 87.9 | 106 |
| CC(O)C1C(=O)N2C(C(=O)O)=C(SC3CNC(C(=O)N(C)C)C3)C(C)C12 (stereo unspecified) [Meropenem] | 77.9 | 105 | 86.1 | 93.9 |
| CC(=O)OC12COC1CC(O)C1(C)C(=O)C(O)C3=C(C)C(OC(=O)C(O)C(NC(=O)OC(C)(C)C)c4ccccc4)CC(O)(C(OC(=O)c4ccccc4)C21)C3(C)C.O.O.O (stereo unspecified) [Docetaxel Trihydrate] | 77.2 | 37.3 | 83 | 137 |
| CC12C=CC(=O)C=C1CCC1C2C(=O)CC2(C)C1CCC2(O)C(=O)CO (stereo unspecified) [Prednisone] | 81.3 | 94 | 120 | 115 |
| CC1CC2C3CCC4=CC(=O)C=CC4(C)C3(F)C(O)CC2(C)C1(O)C(=O)CO (stereo unspecified) [Betamethasone] | 82.4 | 105 | 178 |  |
| c1ccc2[nH]c(-c3cscn3)nc2c1 [Thiabendazole] | 156 |  |  |  |
| O=C1C=CC=CC1=C1NC(=C2C=CC=CC2=O)N(c2ccc(C(=O)O)cc2)N1 [Deferasirox] | 61.3 | 66.3 | 80.6 |  |
| CC(=O)c1c(C)c2cnc(Nc3ccc(N4CCNCC4)cn3)nc2n(C2CCCC2)c1=O.O=S(=O)(O)CCO | 111 | 92.3 | 102 |  |
| CNCC(O)C(O)C(O)C(O)CO.Cc1c(Nc2ncccc2C(=O)O)cccc1C(F)(F)F [Flunixin Meglumin] | 103 | 88.6 | 108 | 120 |
| Cc1[nH]c2ccccc2c1CCNCc1ccc(C=CC(=O)NO)cc1 [Panobinostat (LBH589)] | 37.3 | 22.5 | 23.2 |  |
| Nc1nc(Cl)nc2c1ncn2C1CC(O)C(CO)O1 (stereo unspecified) [Cladribine] | 58.2 | 51.1 | 93.8 |  |
| Nc1ccccc1NC(=O)c1ccc(CNc2nccc(-c3cccnc3)n2)cc1 [Mocetinostat (MGCD0103, MG0103)] | 102 | 72.5 | 92.7 |  |
| CC=C1NC(=O)C2CSSCCC=CC(CC(=O)NC(C(C)C)C(=O)N2)OC(=O)C(C(C)C)NC1=O (stereo unspecified) [Romidepsin (FK228, depsipeptide)] | 23.8 | 13.7 | 18.2 | 56.1 |
| CCN1CCCC1CNC(=O)c1cc(S(=O)(=O)CC)c(N)cc1OC (stereo unspecified) [Amisulpride] | 91.1 | 124 | 101 | 109 |
| CC(=O)N[C@H](Cc1ccc2ccccc2c1)C(=O)N[C@H](Cc1ccc(Cl)cc1)C(=O)N[C@H](Cc1cccnc1)C(=O)N[C@@H](CO)C(=O)N[C@@H](Cc1ccc(O)cc1)C(=O)N[C@H](CCCNC(N)=O)C(=O)N[C@@H](CC(C)C)C(=O)N[C@@H](CCCNC(=N)N)C(=O)N1CCC[C@H]1C(=O)N[C@H](C)C(N)=O [Cetrorelix] | 77.2 | 85.4 | 119 | 117 |
| C=CC(=O)N1CCCC(n2nc(-c3ccc(Oc4ccccc4)cc3)c3c(N)ncnc32)C1 (stereo unspecified) | 105 | 58.6 | 55.8 | 71.5 |
| CC(C)(C)NCC(O)COc1nsnc1N1CCOCC1.O=C(O)C=CC(=O)O (stereo unspecified) [Timolol Maleate] | 81.6 | 98.7 | 109 | 90.4 |
| COc1ccc(-c2ccc3cc(C(=O)O)ccc3c2)cc1C12CC3CC(CC(C3)C1)C2 [Adapalene sodium salt] | 104 | 94 | 135 | 116 |
| CNC1CCC(c2ccc(Cl)c(Cl)c2)c2ccccc21.Cl (stereo unspecified) [Sertraline HCl] | 66.7 | 65.6 | 97 | 45.8 |
| NCC1OC(OC2C(CO)OC(OC3C(O)C(N)CC(N)C3OC3OC(CO)C(O)C(O)C3N)C2O)C(N)C(O)C1O.O=S(=O)(O)O (stereo unspecified) [Paromomycin Sulfate] | 91.9 | 92.4 | 105 | 90.7 |
| Clc1ccc(C(Cn2ccnc2)OCc2csc3c(Cl)cccc23)c(Cl)c1.O=[N+]([O-])O (stereo unspecified) [Sertaconazole nitrate] | 88.7 | 119 | 119 | 112 |
| O=C(O)c1cc(=O)[nH]c(=O)[nH]1 [Orotic acid] | 75.4 | 88.9 | 117 | 98.6 |
| Clc1ccc2nsnc2c1NC1=NCCN1 [Tizanidine] | 80.6 | 77.3 | 121 | 128 |
| COc1cc2nccc(Oc3ccc(NC(=O)NC4CC4)c(Cl)c3)c2cc1C(N)=O [Lenvatinib (E7080)] | 74.9 | 81.8 | 74 | 87.8 |
| Cc1c(-c2ccc(O)cc2)n(Cc2ccc(OCCN3CCCCCC3)cc2)c2ccc(O)cc12.Cl [Bazedoxifene HCl] | 55 | 71.2 | 76.1 | 71.8 |
| Cc1ccsc1C(=CCCN1CCC[C@@H](C(=O)O)C1)c1sccc1C [Tiagabine] | 69.5 | 79.6 | 105 | 88.1 |

From the supplement of paper PMC8512760
